At least one structure is not confirmed: it was looked up by name or label, or the drawing left a doubt. Starred links: 1 amine or outer side, 2 acyl side, 3 side chain; linkers in the order of their positions; H or OH if unused. Positions of bridges follow the written chain, without caps; N, C: chain ends. Residues, ends and D or L forms follow the SMILES beside them. *: point of attachment. C20 diacid = O=C(O)CCCCCCCCCCCCCCCCCCC(=O)*; γGlu = O=C(O)[C@H](CCC(=O)[*:2])N[*:1]; AEEA = NCCOCCOCC(=O)O
Target: T1, human natriuretic peptide receptor 2 (hNPR2) (Homo sapiens, UniProt P20594)
T1 construct: expressed in transfected cells; host or cells: HEK293 (ATCC CRL-1573), clone 35, co-transfected with pGloSensor-42F
T1 sequence (P20594 23-1047): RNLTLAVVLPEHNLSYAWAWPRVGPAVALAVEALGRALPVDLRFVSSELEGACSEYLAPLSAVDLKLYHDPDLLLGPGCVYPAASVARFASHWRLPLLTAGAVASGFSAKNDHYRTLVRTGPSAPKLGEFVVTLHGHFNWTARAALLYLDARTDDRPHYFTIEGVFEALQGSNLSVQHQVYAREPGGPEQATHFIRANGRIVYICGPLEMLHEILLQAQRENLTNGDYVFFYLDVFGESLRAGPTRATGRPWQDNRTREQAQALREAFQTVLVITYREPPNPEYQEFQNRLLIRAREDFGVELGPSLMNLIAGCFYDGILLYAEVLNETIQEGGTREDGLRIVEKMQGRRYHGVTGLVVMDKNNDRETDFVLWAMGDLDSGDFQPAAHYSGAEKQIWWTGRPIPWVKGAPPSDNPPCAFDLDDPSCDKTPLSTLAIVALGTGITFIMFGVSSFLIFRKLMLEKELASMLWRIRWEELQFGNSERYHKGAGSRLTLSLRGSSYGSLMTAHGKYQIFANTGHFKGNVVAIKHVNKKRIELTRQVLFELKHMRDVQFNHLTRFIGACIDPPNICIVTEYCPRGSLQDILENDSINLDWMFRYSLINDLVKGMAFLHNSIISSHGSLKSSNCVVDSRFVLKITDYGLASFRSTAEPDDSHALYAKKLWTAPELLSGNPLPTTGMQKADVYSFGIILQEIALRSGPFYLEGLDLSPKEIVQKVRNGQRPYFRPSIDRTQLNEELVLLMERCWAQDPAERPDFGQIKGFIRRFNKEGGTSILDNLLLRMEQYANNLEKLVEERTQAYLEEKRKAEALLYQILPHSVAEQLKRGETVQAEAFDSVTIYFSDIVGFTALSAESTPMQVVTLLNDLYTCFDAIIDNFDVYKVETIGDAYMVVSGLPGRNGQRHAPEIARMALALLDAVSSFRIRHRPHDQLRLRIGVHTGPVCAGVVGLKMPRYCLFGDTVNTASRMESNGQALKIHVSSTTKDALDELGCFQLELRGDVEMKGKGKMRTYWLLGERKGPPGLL
Test: In vitro hNPR2 activity assay (cGMP GloSensor reporter, HEK293)
Format: cell-based
Conditions: read-out: hNPR2 0% HSA. [EC50 (nM)], HEK293-hNPR2/GloSensor cells
Protocol: To evaluate the in vitro activity of CNP22 (0065; Chem. 1) and CNP compounds of the invention, they were tested for their ability to induce production of cyclic guanosine monophosphate (cGMP) in reporter cells expressing the human natriuretic peptide receptor 2 (hNPR2).
Cell culture: To produce the reporter cell line, HEK293 (ATCC® CRL-1573™) cells were stably transfected with the pGloSensor-42F reporter plasmid (GloSensor cGMP reporter—luciferase, Promega) and an expression plasmid encoding the hNPR2 receptor. A single cell clone was isolated for the reporter cell line. When reporter cells are exposed to an hNPR2 activating compound, hNPR2 cause production of cGMP. […] Active GloSensor luciferase is able to convert luciferin to oxyluciferin, a process that produces bioluminescence. Upon cell lysis and supply of luciferase substrate, luciferase activity can be quantified by detection of luminescence. Therefore, addition of an hNPR2 activating compound and subsequent addition of detection reagent to reporter cells causes generation of luminescence in a dose dependent manner. […]
Procedure: HEK293-hNPR2/GloSensor clone 35 cells were continuously cultured in selection medium (DMEM containing 10% FCS, 1% P/S, 200 μg/mL G418 and 100 μg/mL hygromycin). […] A minimum of two replicates was measured for each test compound.

CC[C@H](C)[C@@H]1NC(=O)[C@H](CCCNC(=N)N)NC(=O)[C@H](CC(=O)O)NC(=O)[C@H](CC(C)C)NC(=O)[C@@H]2CCCN2C(=O)[C@H](CC(C)C)NC(=O)CNC(=O)[C@H](Cc2ccccc2)NC(=O)[C@@H](NC(=O)CNC(=O)[C@H](CCC(N)=O)NC(=O)[C@H](CO)NC(=O)[C@H](CC(C)C)NC(=O)CNC(=O)[C@H](CCCCN)NC(=O)[C@H](CCCCN)NC(=O)[C@H](CCC(N)=O)NC(=O)[C@H](C)NC(=O)CNC(=O)[C@H](CCCCN)NC(=O)[C@H](Cc2ccc(O)cc2)NC(=O)[C@H](CCCCN)NC(=O)[C@H](CCCNC(=N)N)NC(=O)[C@H](C)NC(=O)[C@H](CCC(N)=O)NC(=O)[C@@H]2CCCN2C(=O)[C@H](Cc2c[nH]cn2)NC(=O)[C@H](CCC(=O)O)NC(=O)[C@H](CCC(N)=O)NC(=O)COCCOCCNC(=O)COCCOCCNC(=O)CC[C@H](NC(=O)CC[C@H](NC(=O)CC[C@H](NC(=O)CC[C@H](NC(=O)CC[C@H](NC(=O)CC[C@H](NC(=O)CCCCCCCCCCCCCCCCCCC(=O)O)C(=O)O)C(=O)O)C(=O)O)C(=O)O)C(=O)O)C(=O)O)CSSC[C@@H](C(=O)O)NC(=O)CNC(=O)[C@H](CC(C)C)NC(=O)CNC(=O)[C@H](CO)NC(=O)[C@H](CC(C)C)NC(=O)[C@H](CO)NC(=O)CNC1=O [compound 1405] ({C20 diacid-γGlu-γGlu-γGlu-γGlu-γGlu-γGlu-AEEA-AEEA}-QEHPQARKYKGAQKKGLSQGCFGLPLDRIGSLSGLGC-OH; disulfide 21-37) gave an EC50 of 0.31 nM.

Source: patent US20240209028A1, “CNP COMPOUNDS” (priority 2022, published 2024)
